In paper PMC12136788:
Some of the results follow.

B1: chr2:44428564:44428565:+_ENSG00000138032_ENST00000378551|hu_hu|FALSE|FALSE (ssRNA)
RNA: GGGAGUUCUACAGUCCGACGAUCAAGAGCAGAUCCUGAUUUUCCAGCUGCCCUAAAGUCUUCGUUAGUAGUGAUGUGUUCUAAUAAAUGUGUUGAGCAGUAAUUUGCCACUCGGGAUCCAGCAUGACCAUCAUAAACUGCAAACAACAGAGGAUUGAGCAUCA
B2: 66455519_66455728_6417_CDS_ENSG00000173898_ENST00000309996|human|control|control (ssRNA)
RNA: GGGAGUUCUACAGUCCGACGAUCUUGUGUGGAUGGUGGUGGCCGUGGCUGGGUUCCGUCCCAGGUGGUGUCAGAAGCUGUCUGGCCGCCCACCAGGUCCCCUGGAGGCACACUGGCUGUGGGUUCGGGAGCAGGCGGCUGUUUCAACAGAGGAUUGAGCAUCA
B3: chr22:42033747:42033748:+_ENSG00000196419_ENST00000405878|hu_hu|FALSE|FALSE (ssRNA)
RNA: GGGAGUUCUACAGUCCGACGAUCCAGGUCUUCUAGCUUGCUGGAUUCCUCAAAGUGAACCCUGAGGUCCUCAUCCUCUGCUAUGCUGAUGAUAUCUCUGUAGAACAAGGAUAUGUCAAAGCCCCCAGGUUUCUUCAGGUGCAUCAACAGAGGAUUGAGCAUCA
B4: chr14:15598107:15598108:+_ENSMUSG00000021733_ENSMUST00000057015|perfect_dup|motif|central (ssRNA)
RNA: GGGAGUUCUACAGUCCGACGAUCUUGCCCAGCAAACAAUGAAUAGGCAAUCCCAGUUAAUGAUGCUCCAAAAAGAGACUCGGUUGCACUUAUUCUGCCUUCUGUAGCUUCUCCAAGCAGCCCUCCAAAAGUGAUUACAGGAGACAACAGAGGAUUGAGCAUCA
B5: chr11:87793471:87793472:-_ENSMUSG00000020483_ENSMUST00000020775|mus_mus|mus_mus_mus_hu_False|58_68 (ssRNA)
RNA: GGGAGUUCUACAGUCCGACGAUCUGGACUUGAAAAUAAAAGAAUAAGCUGGAUCCCCCACCCCCCCACAGUGUCAACCCUAUGCGAGAGUUUUGAAGGCGACUCAUGAAAAUCAGCAGCUCAAACGGCAAUGACCACCCCACCCAACAGAGGAUUGAGCAUCA
B6: chr8:34730120:34730121:+_ENSMUSG00000009630_ENSMUST00000009774|mus_hu|FALSE|FALSE (ssRNA)
RNA: GGGAGUUCUACAGUCCGACGAUCUAAAACAGUAAUUUAGUUUAAAUGAAGGGAAAUCUCUUUAAAUGUUAUGACAACAUACUCCCAAGAAGAACCUUUUCUUCAGUUAAGUUAAUUAUACAUUUCAAUAAAAUAAAGGAUAAUCAACAGAGGAUUGAGCAUCA
B7: chr5:43295983:43295984:-_ENSG00000112972_ENST00000433297|hu_hu|motif|central (ssRNA)
RNA: GGGAGUUCUACAGUCCGACGAUCGAUACUAUUUUUAUCUCUAUUCUGGUCAUUAAGGAAGUCAUUCAGCAACAUCCGAGCGGGAGAUUUCUGAACCAGUUUACAAUAUGGUGAGUGAAAGAUCAUGAAGCCAAAAUCAUUCAACAACAGAGGAUUGAGCAUCA
B8: chr10:20037848:20037849:+_ENSMUSG00000037608_ENSMUST00000043881|mus_mus|motif|central (ssRNA)
RNA: GGGAGUUCUACAGUCCGACGAUCUCAGUGAUGUCUUUGAGACACUACCAAGAUUCUUCUUGUAGAAAAUGUUAUGGGAAACGGAACUCUAAAUUCAAAUACCUGACACGCCGAAGCACGAUGUGCGUGCAGGGUUUACCUCCGCAACAGAGGAUUGAGCAUCA
B9: chr14:76904430:76904431:+_ENSMUSG00000022010_ENSMUST00000022587|mus_mus|mus_mus_mus_hu_True|68_88 (ssRNA)
RNA: GGGAGUUCUACAGUCCGACGAUCUGCAGCCAAAAACACCCUCGUGGCGGGAGGGAGGGAACACCAGCAGCCUGGUUUAAGCUAGAUAAAAUCUUCUGGCUUUCCGCAGCCCAGGGAGAAACAGAAAACGGCAGCCCUAAUUUACAACAGAGGAUUGAGCAUCA
B10: chr17:72008250:72008251:+_ENSMUSG00000041057_ENSMUST00000047086|mus_hu|FALSE|FALSE (ssRNA)
RNA: GGGAGUUCUACAGUCCGACGAUCCAGCUCCAUUUAUAGACAAAUAUAACUGUACAUUACACCAGCAGCUGGUUCAAACUUGCUUUCCCAAGAUGCUUAUAUGGCUCUGGCUCUUAAGAUGAGCACACAAAUCUCUGUUCUGUCCAACAGAGGAUUGAGCAUCA
B11: 30389837_30391868_596_CDS_ENSMUSG00000029775_ENSMUST00000068259|mouse|control|control (ssRNA)
RNA: GGGAGUUCUACAGUCCGACGAUCCACAUUGCAGACAUGGACGUCAUUGCCGUUGCUCUCACCAAACGGGAUGCCUGUACCUCCGAACACUAACAGGUUGUUUCCAUGCAGCACAAGUGACAUUGAUGCCAAUUCCCGGGGCAUCAACAGAGGAUUGAGCAUCA
B12: chr2:179515052:179515053:+_ENSMUSG00000000305_ENSMUST00000000314|mus_hu|mus_mus_mus_hu_False|38_68 (ssRNA)
RNA: GGGAGUUCUACAGUCCGACGAUCGCUGUCCCAUGCAGUCACCGUGAACGCCACCUGCUCGGAGGGGAUCUUCAACUCCCGGGUGGCGAAGACUGUCCCAUCCGCCCCAACUUUGAAGUCCAUGCUGUUGGUCUCAUAUUGUGUCAACAGAGGAUUGAGCAUCA
B13: 74647320_74650340_1477_3pUTR_ENSG00000113161_ENST00000287936|human|control|control (ssRNA)
RNA: GGGAGUUCUACAGUCCGACGAUCAUUUUGCACCUUUCUCUGCAUUCCCAAGUAUCUGUAGACAUUCUUCAUUAGGCCGAGGUUCCCUGGGAAGUUCAAUUUCAGGUUCCUGUGUCACCAGUACUGAUGAAGUAUCGAGUAAGGCAACAGAGGAUUGAGCAUCA
B14: 31999977_32000268_785_CDS_ENSMUSG00000021910_ENSMUST00000168206|mouse|control|control (ssRNA)
RNA: GGGAGUUCUACAGUCCGACGAUCCUUGGUCCGGUAGUCAGGGAUGAUGCUCAAAGGGUUGUUCAGCAAGGUCAAACGCUCCAGACAUGGCAGGCUGCCAAUGCUCUUGACCUCAUCCAACUGCUCAAUCCGGUUGUCUCGUAGCAACAGAGGAUUGAGCAUCA
B15: chr16:17484321:17484322:+_ENSMUSG00000006134_ENSMUST00000006293|mus_mus|FALSE|FALSE (ssRNA)
RNA: GGGAGUUCUACAGUCCGACGAUCCAGACUUGAGGAGUUCGGGACAGAAUUGUCUGGAGUUUUACUUCCUCUGUCGUCCAAAGAAAACUGAGUUGGUGGCAAAACCACUGUUCUGUGGACCAGCAAAGCGAGACCUUGCCAAGCCAACAGAGGAUUGAGCAUCA
B16: 6701587_6701707_3041_CDS_ENSG00000111642_ENST00000544040|human|control|control (ssRNA)
RNA: GGGAGUUCUACAGUCCGACGAUCAAUUAGUUCUGUCUUGGAGGGCAUGUUCUUGAACACAUCGGCUUUGAGCCGCCGCAACAUGUGCGGCCCCAGCAUGUCAUGCAGUUUUUUUAUCUGGUCCUCCUUGGCAAUGUCAGCAAACAACAGAGGAUUGAGCAUCA
B17: chr5:128440902:128440903:+_ENSG00000066583_ENST00000173527|hu_mus|hu_hu_hu_mus_True|18_68 (ssRNA)
RNA: GGGAGUUCUACAGUCCGACGAUCUUGAACGGUGCUGCCAAGUCCUUUGGGGUAUUGUUCCGUUAUGAUAACAGGAAUCCCUAAGAUCCGAGCUCCUUGCAACAGUCUCUGUCCCACGCUAAUAAUAUCCCCAAAGUAUUUGAUCAACAGAGGAUUGAGCAUCA
B18: chr13:120183613:120183614:-_ENSMUSG00000025453_ENSMUST00000099149|mus_mus|FALSE|FALSE (ssRNA)
RNA: GGGAGUUCUACAGUCCGACGAUCGUAGAUGAAGCUAAUUAGAGUUCCUGAUGGCUUUAAAAAGUCAGCUUCGUGAGCGCCUAACGUCGGGUUCACCAUGGGGGCCCUCACUUUGACCACCAGAUCAGAAGCCAGAACUUCCUUCAACAGAGGAUUGAGCAUCA
B19: chr4:19447016:19447017:-_ENSMUSG00000028228_ENSMUST00000029885|mus_mus|FALSE|FALSE (ssRNA)
RNA: GGGAGUUCUACAGUCCGACGAUCUUUAUAAAAUGAUAAUCUAGAAGUUGGAAAUGCUUUUAUUUCAAAUUGCAGAAAACUAUGAAUUACUUUAAUUUGCCAGAAUCACAGCUCCUAUGAAUGGCAUUUAUAAAACUUGAUCAACAACAGAGGAUUGAGCAUCA
B20: chr10:33214929:33214930:-_ENSG00000150093_ENST00000302278|hu_hu|hu_hu_hu_mus_True|98_108 (ssRNA)
RNA: GGGAGUUCUACAGUCCGACGAUCAACAAGUUCAUUAAAUACUUCUCCUCUGUCAGUAAGACUAAGCACAUUUUUGUAGCUAAAUGGGCUGGUGCAGUUUUGUUCACUUGUACAAGGAUUUCUUAGCUUUGCUGGGGUUGUGCUCAACAGAGGAUUGAGCAUCA
B21: chr7:30656748:30656749:+_ENSG00000106105_ENST00000389266|hu_hu|FALSE|FALSE (ssRNA)
RNA: GGGAGUUCUACAGUCCGACGAUCAUCUGGAGAUAUUCCAACCUUCGUGAGGUAGAGGUAGAUGCGGCCAAUGAAAUAGCCUAAUACUGUGUUAUUAAUCACACCCUGUUCAACAGCAUCUCCCAGGCGCAUUUUCCGAGCGGACAACAGAGGAUUGAGCAUCA
B22: chr12:82822756:82822757:-_ENSMUSG00000042724_ENSMUST00000035987|mus_mus|FALSE|FALSE (ssRNA)
RNA: GGGAGUUCUACAGUCCGACGAUCGGCUGAGGAGGAGAGGCAGUAGACGGAUUUGGCUGAAUGACUCUGUAGUGUCACCCUAAAAGGAAAGGAAGACCGGAGGGUGGGGACAUAUGUGCACACCCCUCUCUAUACAGUCAGAGCCAACAGAGGAUUGAGCAUCA

molecular target: T1, UNK ZnF1-3 (human, UniProt Q9C0B0 31-174); experiment: nsRBNS (natural sequence RNA bind-n-seq); RBNS binding buffer (assumed for nsRBNS): 25 mM Tris pH 7.5, 150 mM KCl, 3 mM MgCl2, 0.01% Triton X-100, 500 ug/ml BSA, 20 U/ml SUPERase-In, 4 C; UNK is unkempt and MSI1 is Musashi-1; names of the RNAs are library labels; protein concentration not given here; high values mean tight binding
T1 sequence: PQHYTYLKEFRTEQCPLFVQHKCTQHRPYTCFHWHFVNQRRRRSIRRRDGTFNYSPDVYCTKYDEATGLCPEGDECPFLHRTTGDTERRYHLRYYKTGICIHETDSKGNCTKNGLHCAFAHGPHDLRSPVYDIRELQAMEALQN

B1 was tested. Which binding signal did it give?
The binding signal was 1.28 enrichment R.

How did the binding signal turn out when B2 was run?
Its binding signal is 0.655 enrichment R.

For B3, which binding signal is on record?
Its binding signal is 0.661 enrichment R.

How did the binding signal turn out when B4 was run?
The binding signal was 1.31 enrichment R.

How did the binding signal turn out when B5 was run?
The binding signal was 2.02 enrichment R.

With B6 as the binder, how does the binding signal read?
The binding signal was 0.849 enrichment R.

With B7 as the binder, how does the binding signal read?
Its binding signal is 1.14 enrichment R.

How did the binding signal turn out when B8 was run?
The binding signal was 0.616 enrichment R.

How did the binding signal turn out when B9 was run?
The binding signal was 2.06 enrichment R.

Which binding signal does the source give for B10 here?
Its binding signal is 1.5 enrichment R.

B11 was tested. Which binding signal did it give?
The binding signal was 1.01 enrichment R.

How did the binding signal turn out when B12 was run?
Its binding signal is 0.738 enrichment R.

How did the binding signal turn out when B13 was run?
Its binding signal is 0.692 enrichment R.

How did the binding signal turn out when B14 was run?
The binding signal was 1.16 enrichment R.

How did the binding signal turn out when B15 was run?
Its binding signal is 1.11 enrichment R.

With B16 as the binder, how does the binding signal read?
Its binding signal is 0.469 enrichment R.

How did the binding signal turn out when B17 was run?
The binding signal was 0.807 enrichment R.

How did the binding signal turn out when B18 was run?
Its binding signal is 0.736 enrichment R.

With B19 as the binder, how does the binding signal read?
Its binding signal is 0.926 enrichment R.

For B20, which binding signal is on record?
Its binding signal is 0.769 enrichment R.

With B21 as the binder, how does the binding signal read?
Its binding signal is 1.05 enrichment R.

For B22, which binding signal is on record?
The binding signal was 2.39 enrichment R.
